# Measurements reported in the supplement of paper PMC12217912.
# Some of the results follow. Sequences were assembled here from the parent chain. Inactive controls read about 0.05.
# B1: TEV protease; numbered along this chain (parent)
# chain: MGESLFKGPRDYNPISSSICHLTNESDGHTTSLYGIGFGPFIITNKHLFRRNNGTLVVQSLHGVFKVKDTTTLQQHLVDGRDMIIIRMPKDFPPFPQKLKFREPQREERICLVTTNFQTKSMSSMVSDTSCTFPSGDGIFWKHWIQTKDGQCGSPLVSTRDGFIVGIHSASNFTNTNNYFTSVPKNFMELLTNQEAQQWVSGWRLNADSVLWGGHKVFMVKPEEPFQPVKEATQL
# Variants of: B1
# Assay: raw area under fraction-flipped curve 0-4 h after induction (AUC4h, not background-subtracted), DNA-recorder readout of cleavage of the substrate (dimensionless); higher = more cleavage of the substrate by the protease variant
# Details: temperature: 34 °C; time window: 0-4 h after rhamnose induction
# Method: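 In vivo DNA recorder in E. coli TOP10(DE3) ΔrhaA at 34 °C. Each TEVp single-site mutant (parent TEVp 0) is paired with a single-site variant of the 7-mer TEVs (canonical ENLYFQ|S). The substrate sits between flexible linkers in a Bxb1-sfGFP-TEVs-SsrA fusion, so cleavage stabilises Bxb1 and speeds flipping of a recombination array, read by NGS. The value is the raw area under the fraction-flipped curve over 0-4 h after rhamnose induction (AUC4h), with ≥20 reads per time point. It is not background-subtracted; inactive controls average about 0.047.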
# 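Also: Bxb1 expression induced with 0.2% (w/v) L-rhamnose at OD600 near 0.5, cultures sampled hourly, flipped fraction per protease–substrate barcode pair counted by paired-end Illumina sequencing.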
Variant,area with substrate ENLYFQA,area with substrate ENLYFQI,area with substrate ENLYFQK,area with substrate ENLYFQM,area with substrate ENLYFQP,area with substrate ENLYFQR,area with substrate ENLYFQS,area with substrate ENLYFQV,area with substrate ENLYFQY,area with substrate ENLYFQC,area with substrate ENLYFQE,area with substrate ENLYFQG,area with substrate ENLYFQH,area with substrate ENLYFQL,area with substrate ENLYFQQ,area with substrate ENLYFQT,area with substrate ENLYFQW,area with substrate ENLYFQF,area with substrate ENLYFQD,area with substrate ENLYFQN
MGESLFKGPRDYNPISSSICHLTNESDGHTTSLYGIGFGPFIITNKHLFRRNNGTLVVQSLHGVFKVKDTTTLQQHLVDGRDMIIIRMPKDFPPFPQKLKFREPQREERICLVTTNFDTKSMSSMVSDTSCTFPSGDGIFWKHWIQTKDGQCGSPLVSTRDGFIVGIHSASNFTNTNNYFTSVPKNFMELLTNQEAQQWVSGWRLNADSVLWGGHKVFMVKPEEPFQPVKEATQL [Q118D],0.0957,0.0532,0.0549,0.0765,0.0756,0.0788,0.0978,0.061,0.0877,,,,,,,,,,,
MGESLFKGPRDYNPISSSICHLTNESDGHTTSLYGIGFGPFIITNKHLFRRNNGTLVVQSLHGVFKVKDTTTLQQHLVDGRDMIIIRMPKDFPPFPQKLKFREPQREERICLVTTNFQTKSMSSMVSDTSCTFPCGDGIFWKHWIQTKDGQCGSPLVSTRDGFIVGIHSASNFTNTNNYFTSVPKNFMELLTNQEAQQWVSGWRLNADSVLWGGHKVFMVKPEEPFQPVKEATQL [S135C],0.0739,0.059,0.0489,0.0606,0.0612,0.0629,0.0796,0.0589,0.0505,0.074,0.0669,0.077,0.072,0.0587,0.0614,0.0581,0.0573,,,
MGESLFKGPRDYNPISSSICHLTNESDGHTTSLYGIGFGPFIITNKHLFRRNNGTLVVQSLHGVFKVKDTTTLQQHLVDGRDMIIIRMPKDFPPFPQKLKFREPQREERICLVTTNFQTKSMSSMVSDTSCTFPSGDGIFWKHWIATKDGQCGSPLVSTRDGFIVGIHSASNFTNTNNYFTSVPKNFMELLTNQEAQQWVSGWRLNADSVLWGGHKVFMVKPEEPFQPVKEATQL [Q146A],0.138,0.0563,0.0567,0.0953,,0.048,0.107,,0.0638,0.12,,,0.109,0.0545,,,,0.0786,,
MGESLFKGPRDYNPISSSICHLTNESDGHTTSLYGIGFGPFIITNKHLFRRNWGTLVVQSLHGVFKVKDTTTLQQHLVDGRDMIIIRMPKDFPPFPQKLKFREPQREERICLVTTNFQTKSMSSMVSDTSCTFPSGDGIFWKHWIQTKDGQCGSPLVSTRDGFIVGIHSASNFTNTNNYFTSVPKNFMELLTNQEAQQWVSGWRLNADSVLWGGHKVFMVKPEEPFQPVKEATQL [N53W],0.0819,0.0552,,,0.0652,0.0589,0.0852,,,0.0686,,0.0721,0.0697,0.0506,,0.082,0.0705,0.0529,0.0639,0.0761
MGESLFKGPRDYNPISSSICHLTNESDGHTTSLYGIGFGVFIITNKHLFRRNNGTLVVQSLHGVFKVKDTTTLQQHLVDGRDMIIIRMPKDFPPFPQKLKFREPQREERICLVTTNFQTKSMSSMVSDTSCTFPSGDGIFWKHWIQTKDGQCGSPLVSTRDGFIVGIHSASNFTNTNNYFTSVPKNFMELLTNQEAQQWVSGWRLNADSVLWGGHKVFMVKPEEPFQPVKEATQL [P40V],0.102,,0.0598,,,,0.105,0.0505,0.0745,0.108,,,,0.062,0.0646,0.0648,,,0.0791,0.0879
MGESLFKGPRDYNPISSSICHLTNESDGHTTSLYGIGFGPFIITNKHLFRRNNGTLVVQSLHGVFKVKDTTTLQQVLVDGRDMIIIRMPKDFPPFPQKLKFREPQREERICLVTTNFQTKSMSSMVSDTSCTFPSGDGIFWKHWIQTKDGQCGSPLVSTRDGFIVGIHSASNFTNTNNYFTSVPKNFMELLTNQEAQQWVSGWRLNADSVLWGGHKVFMVKPEEPFQPVKEATQL [H76V],0.0884,,0.0578,0.101,,,0.0958,,,0.0748,,0.0632,,,,,0.0627,,,0.0843
MGESLFKGPRDYNPISSSICHLTNESDGHTTSLYGIGFGPFIITNKHLFRRNNGTLVVQSLHGVFKVKDTTTLQQHLVDGRDMIIIRMPKDFPPFPQKLKFREPQREERICLVTTNFQTKSMSSMVSDTSCTFPSGDGIFWKHWIQTKDGQCGSPLVSTRDGFIVGIHSASNFTNTNNYFTSVPKNFMELLTNQEAQQWVSGWRLNQDSVLWGGHKVFMVKPEEPFQPVKEATQL [A207Q],0.0985,0.0442,0.0636,0.108,,0.0514,0.101,,,0.12,,,0.0769,,,0.072,0.0634,,,0.0866
MGESLFKGPRDYNPISSSICHLTNESDGHTTSLYGIGFGPFIITNKHLFRRNNGTLVVQSLHGVFKVKDTTTLQQHLVDGRDMIIIRMPKDFPPFPQKLKFREPQREERICLVTTNFQTKSMSSMVSDTSCTFPSGDGIFWKHWIQTKDGQCGSPLVSTRDGFIVGCHSASNFTNTNNYFTSVPKNFMELLTNQEAQQWVSGWRLNADSVLWGGHKVFMVKPEEPFQPVKEATQL [I167C],0.101,0.0562,0.0583,0.0651,0.0445,0.0521,0.0843,0.053,,0.105,,0.0949,0.0653,,,0.0468,,,,0.0528
MGESLFKGPRDYNPISSSICHLTNESDGHTTSLYGIGFGPFIITNKHLFRRANGTLVVQSLHGVFKVKDTTTLQQHLVDGRDMIIIRMPKDFPPFPQKLKFREPQREERICLVTTNFQTKSMSSMVSDTSCTFPSGDGIFWKHWIQTKDGQCGSPLVSTRDGFIVGIHSASNFTNTNNYFTSVPKNFMELLTNQEAQQWVSGWRLNADSVLWGGHKVFMVKPEEPFQPVKEATQL [N52A],0.0661,,0.0607,0.047,0.0589,0.0623,0.0778,,0.065,0.0696,0.0572,0.0744,0.0704,0.0572,,0.0679,0.0601,,,0.0648
MGESLDKGPRDYNPISSSICHLTNESDGHTTSLYGIGFGPFIITNKHLFRRNNGTLVVQSLHGVFKVKDTTTLQQHLVDGRDMIIIRMPKDFPPFPQKLKFREPQREERICLVTTNFQTKSMSSMVSDTSCTFPSGDGIFWKHWIQTKDGQCGSPLVSTRDGFIVGIHSASNFTNTNNYFTSVPKNFMELLTNQEAQQWVSGWRLNADSVLWGGHKVFMVKPEEPFQPVKEATQL [F6D],0.0892,0.0705,0.0658,,,,0.0909,,,0.0873,,,,0.0619,0.0667,0.0949,0.068,,,0.0788
